From PubChem BioAssay AID1240 (Sanford-Burnham Center for Chemical Genomics, 2008) come the findings set out here.

Each structure is given as a SMILES string. The campaign covered roughly 50,000 compounds. About 800 (1.6%) showed an effect of 50% or more. Some of the results follow.

The target of the experiment is Bcl-2-like protein 10 (Homo sapiens) (UniProt Q9HD36). Briefly: TR3 peptide-Bcl-B binding displacers, biochemical primary FP assay, phenotype converters (AID 1240).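 Further: 0% = Bcl-B with tracer peptide and DMSO and 100% = tracer peptide lacking Bcl-B.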 Conditions: GST-Bcl-B / FITC-TR3 peptide fluorescence polarization; stronger effect = higher value; compound at 3.75 mg/L. A general note: Fluorescence polarisation rises when a labelled molecule tumbles more slowly, as on binding a larger partner.
UniProt Q9HD36, sequence (Q9HD36 whole entry, looked up): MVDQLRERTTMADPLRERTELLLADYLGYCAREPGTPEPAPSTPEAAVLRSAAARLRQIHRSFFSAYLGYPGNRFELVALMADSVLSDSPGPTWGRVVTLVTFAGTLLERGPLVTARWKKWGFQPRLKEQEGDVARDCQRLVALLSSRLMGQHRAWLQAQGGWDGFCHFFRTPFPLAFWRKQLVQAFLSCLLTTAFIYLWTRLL
Consider `CC(C)Cn1c(CN2C(=O)c3ccccc3C2=O)nc2ccccc2c1=O`, for which the displacement turned out to be 0.2%.

In the case of `COCCCNC(=O)CN(c1ccc(Cl)c(C(F)(F)F)c1)S(=O)(=O)c1ccccc1`, the displacement was determined as 13.8%.

For `COc1ccc(C(=O)NCC23CC4CC(CC(C4)C2)C3)cc1`, the displacement is -2.2%.

`C=C(C)c1cccc(C(C)(C)NC(=O)Nc2cc(C)ccn2)c1`: the displacement was -15%.

Take `Fc1ccc(Cn2cc(/C=N/n3cnnc3)c3ccccc32)cc1`: the displacement is -6.4%.

Take `CN(C)CC(O)CN(c1ccccc1)S(=O)(=O)c1ccc([N+](=O)[O-])cc1` (configuration not stated): the displacement was found to be 1.9%.

Take `COc1ccc(OC)c(/C=C2/C(=O)NC(=O)N(c3ccc(C(C)C)cc3)C2=O)c1`: the displacement is -2.8%.

Consider `COc1ccc2c(c1)-c1c(ssc1=S)C(C)(C)N2CC(=O)c1ccccc1`, for which the displacement amounted to 6.5%.

Consider `CCCCOC(=O)c1ccc(NC(=O)c2ccc(OC)c(Br)c2)cc1`, for which the displacement came out at 2.4%.

Take `CCOC(=O)c1c(NC(=O)C(Sc2ccccc2)c2ccccc2)sc(C(C)=O)c1C` (configuration not stated): the displacement worked out at 17.1%.

Turning to `Cc1cc(/C=N/n2cnnc2)c(C)n1-c1ccc(Br)cc1`, the displacement turned out to be 8.8%.

Consider `COC(=O)C1=C(C)N(C)C(C)=C(C(=O)OC)C1c1ccc(-c2ccccc2)cc1`, for which the displacement was -14.2%.

As to `Cc1cccc(C)c1NC(=O)c1ccc(-c2ccc(Cl)cc2Cl)o1`, the displacement was 2.1%.

For the compound `O=C(Nc1ccc(-c2nc3ccccc3o2)cc1)c1ccc(-c2ccc([N+](=O)[O-])cc2)o1`, the displacement stood at 17.1%.

For the compound `NS(=O)(=O)c1ccc(NS(=O)(=O)c2ccc(F)cc2)cc1`, the displacement was -0.6%.

As to `C=CCNC(=O)C(=O)NCCc1ccc(F)cc1`, the displacement worked out at 11.7%.

Turning to `Cc1cccc(-n2c(C)cc(/C=C3/NC(=S)NC3=O)c2C)c1`, the displacement is -38.6%.

`C=CCN1C(=O)/C(=C\c2ccc(-c3ccc([N+](=O)[O-])cc3Br)o2)C(=O)NC1=S`: the displacement stood at 9.8%.

`CC(C)(C)C1CCc2c(sc(NC(=O)/C=C/c3ccco3)c2C(N)=O)C1` (configuration not stated): the displacement worked out at 3%.

Regarding `CCN(C(=O)c1ccccc1F)c1ccccc1`, the displacement was -1.9%.

With `COc1ccc(-n2c(NN)nc3sc4c(c3c2=O)CCCC4)cc1`, the displacement is -9.9%.

Consider `O=C1C2C3CCC(O3)C2C(=O)N1c1ccc(Cl)cc1` (configuration not stated), for which the displacement is -6%.

On to `CCOC(=O)C1=C(C)N=c2s/c(=C\c3ccc(C(=O)O)cc3)c(=O)n2C1c1ccc(OC)c(OC)c1` (configuration not stated), for which the displacement was -22.8%.

Consider `COc1ccc(Cn2nnc(-c3ccccc3)n2)cc1`, for which the displacement is -1.9%.

On to `CCOC(=O)c1c(N)sc(C(=O)N2CCCCCC2)c1C`, for which the displacement was -13.8%.

In the case of `COC(=O)c1cc(NC(=O)c2ccc(OC)cc2)cc(C(=O)OC)c1`, the displacement turned out to be 7.3%.

As to `Cc1ccc(Cl)c(OCCNC(C)(C)C)c1`, the displacement was 5.8%.

As for `CCOC(=O)c1cccc(NC(=O)c2c(OC)cccc2OC)c1`, the displacement was -1.3%.

Turning to `CCC(=O)Nc1ccc2nn(-c3ccc(C)c(Cl)c3)nc2c1`, the displacement stood at 9.1%.

With `O=C(Nc1cc(C(F)(F)F)ccc1Cl)c1ccccc1[N+](=O)[O-]`, the displacement stood at 2.5%.

For the compound `COc1ccccc1C(=O)N1c2ccccc2C(Nc2ccccc2)CC1C` (configuration not stated), the displacement was 5.6%.

As for `COC(=O)C1=C(C)NC(C)=C(C(=O)OC)C1c1cccc(Oc2ccccc2)c1`, the displacement is 5.4%.

Take `CC(C)(C)c1ccc(NC(=O)c2ccc(Br)cc2)c([N+](=O)[O-])c1`: the displacement is 14.4%.

Regarding `O=C(O)c1ccc(Oc2ccc3c(c2)C(=O)N(c2ccc([N+](=O)[O-])cc2)C3=O)cc1`, the displacement stood at 2%.

As to `O=C(NNC(=O)c1ccc([N+](=O)[O-])cc1)Nc1ccccc1`, the displacement is -5.4%.

For `CCCC(=O)N1CCN(c2cc(C)c(C(C)=O)cc2F)CC1`, the displacement is -14.1%.

Take `Cc1ccc(-n2nc3cc(C)c(NC(=O)c4ccccc4[N+](=O)[O-])cc3n2)cc1`: the displacement was determined as 7.8%.

Turning to `CN1C(=O)/C(=C\C=C\c2ccc(Br)cc2)SC1=S`, the displacement came to 3.6%.

Regarding `COc1cc(/C=C2\Sc3ccccc3C2=O)ccc1OS(=O)(=O)c1ccc(C)cc1`, the displacement was determined as 15.5%.

For the compound `CN1CCC(=NNC(=O)C(=O)NC2CCCC2)CC1`, the displacement was -23.9%.

Take `CC(C)(C)c1ccc(-c2nc3ccccc3[nH]2)cc1`: the displacement is -2.4%.

`CC1=NN(C(=O)c2ccccc2)C(C)(O)C1(C)C` (configuration not stated): the displacement amounted to 11.4%.

For the compound `O=C(O)C1C2C=CC(O2)C1C(=O)NCc1ccc(Cl)c(Cl)c1` (configuration not stated), the displacement was -4.7%.

For the compound `Cc1ccc(OCC(=O)N/N=C\c2c(Br)cc(Br)c(O)c2Br)cc1`, the displacement is 7.9%.

With `CCOc1ccc(S(=O)(=O)N(CC(=O)NCCCOC)c2ccc(C)cc2)cc1`, the displacement was -3.5%.

With `CC1(C)CC(=O)C2=C(C1)Nc1ccccc1N(C(=O)c1ccccc1)C2c1ccc(C#N)cc1` (configuration not stated), the displacement is -7.4%.

In the case of `CCOc1cccc(C2C(C(=O)OCCOC)=C(C)NC3=C2C(=O)CC(C)(C)C3)c1` (configuration not stated), the displacement is -3%.

With `CCOC(=O)c1ccccc1N/C=C/C(=O)c1ccc(OC)cc1`, the displacement is -8%.

`CCc1cccc(CC)c1NC(=O)c1ccccc1OC`: the displacement was -4.4%.

`C(#CCSc1nc2ccccc2[nH]1)CSc1nc2ccccc2[nH]1`: the displacement stood at 7.3%.

`O=C(CSc1nnnn1-c1ccccc1)Nc1ccc(Br)cc1`: the displacement was -11.8%.

As to `CCCCNCCCCCCOc1ccccc1C(C)(C)C`, the displacement came to 15.7%.

In the case of `COCCOC(=O)C1=C(C)NC2=C(C(=O)CCC2)C1c1ccc(Cl)cc1Cl` (configuration not stated), the displacement was 0.6%.

As to `COc1ccc(-n2c(O)c(C=NCc3ccc(F)cc3)c(=O)[nH]c2=O)cc1`, the displacement was 12.4%.

Turning to `CCOc1cc(C(=O)Nc2ncccc2C)cc(OCC)c1OCC`, the displacement stood at 2.9%.

For `O=C(CN1CCCCC1)Nc1c(-c2ccccc2)c2cc(Br)ccc2[nH]c1=O`, the displacement is -21.7%.

As to `Cn1cccc1-c1cc(C(=O)N/N=C/c2cccs2)[nH]n1`, the displacement amounted to 3.4%.

On to `C=CCN1C(=O)/C(=C\c2cn(Cc3ccc([N+](=O)[O-])cc3)c3ccccc23)C(=O)NC1=S`, for which the displacement turned out to be 87.4%.

For `COc1ccc(-c2nc(-c3cc(OC)c(O)c(OC)c3)[nH]c2-c2ccc(OC)cc2)cc1`, the displacement was determined as 12.5%.

In the case of `CC1(C)Cc2ccccc2/C(=C/C(=O)N2CCCCCC2)N1`, the displacement was -3.8%.

In the case of `O=C(NC(=S)Nc1ccc2oc(-c3ccc(I)cc3)nc2c1)c1ccccc1Cl`, the displacement was found to be 9.5%.

In the case of `O=C(NC(Cc1ccccc1)C(=O)Nc1ccccn1)OCc1ccccc1` (configuration not stated), the displacement came out at 3.9%.

As for `O=C(c1ccccc1)c1cc(Cl)ccc1N=Cc1ccc([N+](=O)[O-])s1`, the displacement is 2.7%.

For the compound `O=C(COc1ccc(Cl)cc1)NNC(=O)c1ccc([N+](=O)[O-])cc1[N+](=O)[O-]`, the displacement is -6.1%.

Consider `Cc1ccc(NC(=O)C2CC(O)CN2C(=O)Oc2ccccc2)c(C)c1` (configuration not stated), for which the displacement was found to be 13.8%.

For the compound `N#Cc1c(-n2ncnc2-c2cccc([N+](=O)[O-])c2)sc2c1CCCC2`, the displacement came out at 5.6%.

Regarding `Cc1ccc(Cc2cnc(NC(=O)c3ccccc3[N+](=O)[O-])s2)cc1`, the displacement was determined as 11.8%.
